Hit rate of the full screen: of about 150,000 compounds, about 540 (0.36%) showed an effect of 50% or more. This is one part of the list.
The compounds below were run on Plasmodium falciparum (assay: Primary screen in NF54 nanoGlo assay, in single point, at 2uM, 72h; a lower Z score goes with more inhibition). Conditions: timepoint 72 hour.
Type: functional, Erythrocyte

SMILES	% Inhibition	Z score
COC(=O)c1cn(-c2cccc(C(=O)N3CCNC(=O)C3)c2)cc2c(O)nnc1-2	0%	0
COCCc1nc(CO[C@H]2CCCN(C(C)=O)C2)no1	-17%	2.51
COc1ncc(NC(=O)Cc2ccc(F)cc2)c(N2CCCC2)n1	16%	-2.41
C[C@H](NC(=O)C1(c2cccs2)CCCCC1)C(=O)N(C)C	-9%	1.69
Cc1ccc(CCC(=O)Nc2nc3c(cc2C#N)CCC3)o1	-3%	0.31
CS(=O)(=O)N1C[C@H]2CC[C@@H](C1)N(C(=O)c1ccccc1OC(F)F)C2	1%	-0.22
CCOc1ncccc1CNC(=O)c1cc(Br)c[nH]1	6%	-0.5
CCS(=O)(=O)NC[C@H](C)N1CCC(Oc2cccc(Cl)c2)CC1	-10%	1.56
CC(F)CCNC(=O)N1CCO[C@@H](C)C1 (stereo partly specified)	9%	-1.1
Cc1c[nH]c(CNc2cc(C3CC3)nc(C3CC3)n2)n1	1%	-0.08
CC(C)[C@H](NC(=O)CCN1C(=O)CCC1=O)c1cccs1	-5%	0.89
O=C(CCc1ccccc1)N1CCCN(C(=O)Nc2ccc(S(=O)(=O)N3CCOCC3)s2)CC1	-6%	0.82
Cc1ccc2[nH]c(-c3nc([C@H]4CCOC4)no3)cc2c1	-16%	1.86
CCOc1ncccc1C(=O)N1C[C@@H](CN2C[C@@H](C)O[C@@H](C)C2)[C@@H](CO)C1	8%	-0.7
COCCN1C(=O)CC[C@@H](C(=O)NCC2CCCCC2)[C@H]1c1ccc(C)cc1	-5%	0.64
CC(C)COC1CCN(CC(=O)NC2CCOCC2)CC1	-3%	0.39
Clc1cnccc1-c1csc(COCc2ccccc2)n1	-8%	0.69
CC/C=C(/CN1C[C@H](OC)[C@@H](O)C1)c1ccccc1	-5%	0.79
Cc1noc(-c2c(C)sc(C)c2S(=O)(=O)N2CCN(c3cccc(Cl)c3)CC2)c1C	-10%	1.67

SMILES	% Inhibition	Z score
COCCCN/C(=N\c1cccc(C(=O)O)c1)N1CCN(C(c2ccccc2)c2ccccc2)CC1	-11%	1.8
C=CC[C@H](CC)NC(=O)NCc1nccs1	12%	-2.14
COc1ccccc1C1(CC(=O)N2CCCC2c2nccs2)CC(=O)N(C2CCCC2)C1=O (stereo unspecified)	5%	-0.66
COc1ccc(-c2c(C)n[nH]c2C)cn1	0%	0.05
C[C@H](NCc1cc2n(n1)CCCC2)c1nccs1	-1%	0.21
c1cncc(COC2CCN(Cc3cscn3)CC2)c1	-8%	1.4
CC(=O)NCC[C@H]1Cc2ccccc2C2(CCN(S(C)(=O)=O)CC2)O1	-3%	0.41
O=C(Nc1ncc(Cc2ccccc2)s1)C1=Cc2ccccc2OC1	2%	-0.23
O=C(Nc1cc(-n2cncn2)ncn1)c1cc(Cl)ccc1Cl	-15%	2.49
CCc1ncnc(NCCc2nnc3n2CCCC3)c1F	-11%	1.29
Cc1ccc(S(=O)(=O)N2C[C@H]3C[C@H](O)[C@H](O)C[C@H]3C2)c(F)c1	1%	-0.14
Cc1cc(-c2ccc(S(=O)(=O)Nc3ccc(F)c(Cl)c3)o2)on1	2%	-0.35
Cc1cccc(CN2CCC([C@]3(CCc4ccccc4)NC(=O)NC3=O)CC2)n1	-8%	1.22
COc1ccc(CNC(=O)Cn2nc3c4cccc(C)c4ncn3c2=O)cc1	-5%	0.85
CC1(N)CCCCC1C(=O)N1CCc2c(cnn2-c2ccccc2)C1 (stereo unspecified)	2%	-0.18
c1cc2ccc(NCCN3CCOCC3)nc2[nH]1	1%	-0.23
C#CCOc1ccccc1CN(C)CCNS(C)(=O)=O	-7%	0.67
CCOC1CC(C(=O)Nc2ccc(C)c(CC)c2)C1 (stereo unspecified)	-11%	2.14
O=C(NCCc1c[nH]c2cc(F)c(Cl)cc12)[C@H]1CCc2nnnn2CC1	-2%	0.23
